Publication PMC4242493
The list shows a part of the results. The list includes weakly bound sequences.

Target: MaxL homodimer (UniProt P61244)
Test: universal protein-binding microarray (PBM)
Conditions: PBS-based mixture, 10 nM His-tagged protein dimer, 2% milk, 200 ng/uL BSA, 50 ng/uL salmon testes DNA, 0.02% TX-100; detection with Alexa 488 anti-His …; high values mean tight binding; most listed sequences are background and not binding sites; double strand, one strand shown

Chain of UniProt P61244 (P61244 whole entry): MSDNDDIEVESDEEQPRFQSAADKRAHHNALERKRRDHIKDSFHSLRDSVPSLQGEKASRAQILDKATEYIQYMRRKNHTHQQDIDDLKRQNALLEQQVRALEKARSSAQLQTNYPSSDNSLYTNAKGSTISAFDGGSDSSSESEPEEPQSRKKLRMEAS

| Sequence | binding signal (normalized occupancy) |
| --- | --- |
| CCGCTGCG | 0.0704 |
| CATTACGA | 0.0804 |
| CGTAGGGC | 0.0702 |
| GGGTCGAA | 0.068 |
| GTTGCCAA | 0.0738 |
| CGCTATAA | 0.0784 |
| CCTGATAG | 0.0743 |
| AAGCGGGA | 0.0677 |
| GAAATAGC | 0.0789 |
| AACGAGTT | 0.0732 |
| ATGCTAAG | 0.0771 |
| CCACGCCA | 0.0991 |
| GAGGCGTA | 0.0709 |
| GGAGGTGA | 0.0733 |
| CAACGCTG | 0.0769 |
| CCATTACG | 0.0805 |
| CACACTAA | 0.0788 |
| CCAAGCCA | 0.0769 |
| AACTGATT | 0.075 |
| AATACCAG | 0.0778 |
| CAGGCCAC | 0.0781 |
| TATGTAAA | 0.0793 |
| AGGCATTC | 0.0762 |
| TGTCAGAA | 0.0757 |
| AGGGCCCC | 0.0712 |

| Sequence | binding signal (normalized occupancy) |
| --- | --- |
| CCCCCCAC | 0.0873 |
| GAGCTGCA | 0.0701 |
| TGAGTACA | 0.0768 |
| ACGCGATG | 0.0798 |
| CCCGGCCA | 0.0681 |
| CAAAGGAG | 0.0723 |
| ACACCGTG | 0.09 |
| GAGGAGCA | 0.0788 |
| CGCACTAG | 0.074 |
| TGTGTTAA | 0.0788 |
| TGGAGCAA | 0.072 |
| ACACTGAA | 0.0733 |
| ACGGACCA | 0.0743 |
| ATACGGCG | 0.0761 |
| AGAGCGGG | 0.0675 |
| TAGAAATA | 0.0757 |
| GATGGATA | 0.0809 |
| GCCAGGTA | 0.0735 |
| CTCTCCAG | 0.0675 |
| TGTGGAAA | 0.0869 |
| ACCAGACA | 0.0776 |
| AAGTACTT | 0.0682 |
| CATTCCAA | 0.0723 |
| CCCGGAGG | 0.0678 |
| AGGAGCTG | 0.0685 |

| Sequence | binding signal (normalized occupancy) |
| --- | --- |
| CATTTACG | 0.0793 |
| CGGAGACG | 0.0734 |
| CTTACTGC | 0.0708 |
| CGTTCCTC | 0.075 |
| ATCAGGGC | 0.0698 |
| GCACAGGA | 0.0705 |
| GCTTAGCA | 0.0731 |
| TCCTCCAA | 0.0748 |
| AACCCCGG | 0.0708 |
| ATGGCGAC | 0.0755 |
| CAGGTTTA | 0.0705 |
| AGACGGCT | 0.068 |
| ATTCCCAC | 0.0864 |
| ACAAGACA | 0.0713 |
| AGTTCCAC | 0.076 |
| CCCTCTGA | 0.073 |
| CGGGTTGA | 0.0697 |
| CGCCTAAA | 0.0685 |
| CACGGGGA | 0.0894 |
| TCAGCCAA | 0.0752 |
| CTTGAGAC | 0.0756 |
| AACCCCGC | 0.0783 |
| ATAACTGG | 0.0736 |
| TGAGCGCA | 0.0802 |
| CAAACTTG | 0.0675 |

| Sequence | binding signal (normalized occupancy) |
| --- | --- |
| ACTGCTAA | 0.0693 |
| CTACTTCA | 0.0722 |
| AGTAGTTA | 0.0804 |
| ACATGTAG | 0.101 |
| CAAATCTA | 0.0804 |
| GTACCAAA | 0.0692 |
| GACGCGGA | 0.0667 |
| CCACAAGC | 0.072 |
| GCGACTCA | 0.0767 |
| TTATATAA | 0.0746 |
| ATTGCGAC | 0.078 |
| AAGTACCC | 0.077 |
| CCTACCCC | 0.0761 |
| ATGAATAC | 0.0799 |
| CTACCCAC | 0.0773 |
| AGCACCGC | 0.0688 |
| CTCGGGAA | 0.0681 |
| AACAGCCT | 0.0732 |
| CGACGCCA | 0.0755 |
| CATAGCTC | 0.0713 |
| AGCCAATC | 0.0758 |
| ATTTTTTG | 0.0746 |
| CGAACGAA | 0.0711 |
| CACGTAGC | 0.0822 |
| AGGTTTGG | 0.0667 |

| Sequence | binding signal (normalized occupancy) |
| --- | --- |
| ACAGGTTC | 0.0753 |
| CGACAGGC | 0.0693 |
| CGTTCGCC | 0.072 |
| CCCCACCG | 0.0782 |
| CCCCCATA | 0.0868 |
| GACTCCAC | 0.0754 |
| ATTAAGTG | 0.0783 |
| TGCGTCAA | 0.0802 |
| GATCCTAC | 0.0762 |
| ATAGATAA | 0.0808 |
| ATATACGG | 0.0825 |
| ATCTCACA | 0.0818 |
| CAGACCCA | 0.0756 |
| CTCACGAC | 0.0766 |
| AGTCAGGC | 0.0722 |
| AGAATATG | 0.0863 |
| CTGCGCAG | 0.0641 |
| GATACACA | 0.0822 |
| AAGCGCGT | 0.0758 |
| AGTTGGTG | 0.0727 |
| GACTCAGC | 0.0719 |
| GTCCGAAA | 0.0714 |
| GAGAATAC | 0.0816 |
| GCGCCCCC | 0.0716 |
| GATCGTGC | 0.08 |

| Sequence | binding signal (normalized occupancy) |
| --- | --- |
| CAAGACTG | 0.0721 |
| AGCAGGTC | 0.0719 |
| ACGACTGA | 0.0718 |
| CACGGCCC | 0.0709 |
| GTCCTTTA | 0.073 |
| TGGTCCAA | 0.0755 |
| CTGGATCA | 0.0773 |
| ATTAATAC | 0.0792 |
| AAGCGCTG | 0.067 |
| CGCTTGCA | 0.074 |
| CATTCACG | 0.0812 |
| GTCTGGTA | 0.0743 |
| AATAAGCA | 0.0801 |
| ATGATAAC | 0.0796 |
| CACGCCGG | 0.0882 |
| AAGGAAAG | 0.0804 |
| GGCGGTAC | 0.0699 |
| GGAGTGTA | 0.0733 |
| CCCATGGA | 0.0846 |
| GATGTCCC | 0.0747 |
| CTCCGCAA | 0.0684 |
| CCTGCCCA | 0.0792 |
| AGATGATC | 0.0785 |
| ACAGCCGA | 0.0725 |
| CGCTTTGA | 0.0709 |

| Sequence | binding signal (normalized occupancy) |
| --- | --- |
| ATTCATTC | 0.0851 |
| TATTACGA | 0.0849 |
| AGGAGTAA | 0.0761 |
| TACTGGCA | 0.0815 |
| TAGCGCAA | 0.0697 |
| GAGATGCA | 0.0753 |
| CAGATCCA | 0.0767 |
| CCTATCAG | 0.0766 |
| CGCTACTC | 0.069 |
| ATCATAAG | 0.0883 |
| ATGTCTTG | 0.0821 |
| ACTGACTC | 0.0732 |
| AAATAGAG | 0.0769 |
| AAACCGGA | 0.0684 |
| CGCGAAAC | 0.0759 |
| CCCCATTC | 0.0826 |
| CGGTCAAG | 0.0698 |
| ATTCAGTG | 0.0726 |
| CCTGCTGC | 0.0723 |
| TGTACTAA | 0.074 |
| AAGCACAT | 0.0917 |
| ACCGGATA | 0.0794 |
